Measured values as given in article PMC4336329 (PLoS ONE, 2015).
About 2,200 (0.71%) of roughly 310,000 compounds showed an effect of 50% or more. The effect is printed as a negative number. This is one part of the list.

Each compound was assayed against human ether-à-go-go-related gene (hERG) potassium channel (human, UniProt Q12809) (assay: primary screen, population patch clamp on CHO cells stably expressing hERG).
Sequence of human ether-à-go-go-related gene (hERG) potassium channel (Q12809 whole entry, looked up): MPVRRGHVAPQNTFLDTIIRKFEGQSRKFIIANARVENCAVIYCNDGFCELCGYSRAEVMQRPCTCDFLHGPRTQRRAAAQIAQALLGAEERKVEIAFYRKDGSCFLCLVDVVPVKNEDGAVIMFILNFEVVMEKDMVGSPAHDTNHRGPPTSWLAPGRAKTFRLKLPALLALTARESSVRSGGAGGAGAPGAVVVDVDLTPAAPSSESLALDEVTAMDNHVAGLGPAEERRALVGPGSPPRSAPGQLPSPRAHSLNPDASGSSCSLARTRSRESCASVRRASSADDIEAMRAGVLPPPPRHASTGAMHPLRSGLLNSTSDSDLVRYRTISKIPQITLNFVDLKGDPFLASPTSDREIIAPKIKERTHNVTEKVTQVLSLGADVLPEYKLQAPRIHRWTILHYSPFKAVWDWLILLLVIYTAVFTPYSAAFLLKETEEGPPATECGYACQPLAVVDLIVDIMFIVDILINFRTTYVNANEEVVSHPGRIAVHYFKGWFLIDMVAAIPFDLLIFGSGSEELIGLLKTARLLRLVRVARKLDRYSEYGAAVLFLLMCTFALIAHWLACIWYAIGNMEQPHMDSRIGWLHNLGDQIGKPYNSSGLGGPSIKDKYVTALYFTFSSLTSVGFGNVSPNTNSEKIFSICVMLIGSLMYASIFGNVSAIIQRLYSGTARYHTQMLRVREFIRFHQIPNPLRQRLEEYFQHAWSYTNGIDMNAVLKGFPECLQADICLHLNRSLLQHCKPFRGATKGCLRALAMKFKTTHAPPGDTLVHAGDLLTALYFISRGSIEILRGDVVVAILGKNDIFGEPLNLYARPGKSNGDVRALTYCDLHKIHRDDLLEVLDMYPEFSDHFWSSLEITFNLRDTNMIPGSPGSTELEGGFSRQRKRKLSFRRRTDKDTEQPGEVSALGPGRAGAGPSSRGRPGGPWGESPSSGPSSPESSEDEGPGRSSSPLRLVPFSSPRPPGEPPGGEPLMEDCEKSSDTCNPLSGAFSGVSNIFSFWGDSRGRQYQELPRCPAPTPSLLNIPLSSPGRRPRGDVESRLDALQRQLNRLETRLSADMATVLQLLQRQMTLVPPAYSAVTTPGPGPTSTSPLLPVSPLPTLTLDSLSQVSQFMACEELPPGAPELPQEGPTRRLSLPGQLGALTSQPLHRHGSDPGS

First: O=C(CSc1ccc(-c2ccccn2)nn1)NC1CCCCC1
Second: O=C(COc1cccc2ccccc12)NNC(=O)[C@@H]1CCCC[C@@H]1C(=O)O
The “hERG current change (%, negative = inhibition) at 1uM” value of the first is lower: 8.5% for the first, 16.6% for the second.

Going from CCc1ccc(OCC(=O)Nc2ccc(S(=O)(=O)N3CCOCC3)cc2)cc1 to Cc1ccc(NS(=O)(=O)c2cccc(C(=O)NN3CCOCC3)c2)cc1, the “hERG current change (%, negative = inhibition) at 1uM” value rises from -2.24% to 22.4%.

Going from CN1CCc2nc3ccccc3c(C(=O)OCC(=O)N(CCC#N)c3ccccc3)c2C1 to O=C(CCNC(=O)Cn1ccc2ccccc2c1=O)NCCN1CCc2ccccc2C1, the “hERG current change (%, negative = inhibition) at 1uM” value rises from 8.4% to 10.5%.

Going from O=C(N/N=C/c1sc2ccccc2c1O)c1cccc2ccccc12 to O=C(CC(c1ccccc1)c1ccccc1)Nc1ccc(O)cc1, the “hERG current change (%, negative = inhibition) at 1uM” value rises from 10.4% to 11.6%.

First: O=C(CN1CCCCCCC1)NC(=O)NC1CCCCC1
Second: O=C(Nc1sc2c(c1C(=O)NC1CC1)CCCCCC2)c1ccco1
The “hERG current change (%, negative = inhibition) at 1uM” value of the first is higher: 15.5% for the first, 3.37% for the second.

Compared with Cc1cccc(OC(=O)CCN2C(=O)C3C4C=CC(C5CC45)C3C2=O)c1C (centres unmarked), Cc1cc(OCC(=O)Nc2ccccn2)c2c(C)cc(=O)oc2c1 is higher in “hERG current change (%, negative = inhibition) at 1uM” value: 11.9% for the first, 14.3% for the second.

Going from Cc1[nH]c2ccccc2c1C(=O)C(=O)N1CC(C)OC(C)C1 (centres unmarked) to COc1ccccc1NC(=O)C1CCCN(C(=O)Nc2ccc(F)cc2)C1 (centres unmarked), the “hERG current change (%, negative = inhibition) at 1uM” value falls from 14.4% to 12%.

Compared with COc1ccc(CCN(Cc2ccccn2)C(=S)Nc2ccccc2Cl)cc1OC, COc1ccc(CCNC(=O)CCCn2nc(C)n3ccnc3c2=O)cc1OC is lower in “hERG current change (%, negative = inhibition) at 1uM” value: 0.868% for the first, -6.5% for the second.

First: COc1cc2c(cc1OC)CN(c1nc(CN3CCCC3)nc3sc(C)c(C)c13)CC2
Second: COc1ccc(C2=NS(=O)(=O)N(C)C(C(=O)N3CCCCC3)=C2)cc1OC
The “hERG current change (%, negative = inhibition) at 1uM” value of the first is lower: -22.9% for the first, 5.92% for the second.

First: Cc1ccc(S(=O)(=O)/N=C2/NC(=O)/C(=C/c3ccncc3)S2)cc1
Second: Cc1ccc(CCNC(=O)CCS(=O)(=O)c2ccc3nc(C)sc3c2)cc1
The “hERG current change (%, negative = inhibition) at 1uM” value of the first is higher: 21.1% for the first, 6.44% for the second.

First: COc1cc(CO)c(Br)cc1OCC(N)=O
Second: COc1cc(C(=O)NCCC(=O)N2CCCCC2)cc(OC)c1OC
The “hERG current change (%, negative = inhibition) at 1uM” value of the first is higher: 12.7% for the first, 12.3% for the second.

Compared with Cc1noc(C)c1COC(=O)c1ccccc1NC(=O)c1ccco1, CCOC(=O)C1=NN(c2ccccc2)C2=NC(C)=C(C(=O)OC)C(c3cccs3)N12 (centres unmarked) is higher in “hERG current change (%, negative = inhibition) at 1uM” value: -4.29% for the first, -2.54% for the second.

Compared with CC(C)C(=O)NC(=S)NCC(=O)c1ccccc1, CC(C(=O)Nc1ccc(Br)cc1C(=O)c1ccccc1)N1CCCCC1 (centres unmarked) is lower in “hERG current change (%, negative = inhibition) at 1uM” value: 1.31% for the first, -3.23% for the second.

Compared with CCc1ccc(NC(=O)CCc2ccc(CC)o2)cc1, CCOC(=O)C(Cc1ccccc1)C(=O)Nc1ccc(N(CC)CC)cc1 (centres unmarked) is lower in “hERG current change (%, negative = inhibition) at 1uM” value: 19.3% for the first, 8.67% for the second.

Compared with CCOC(=O)C1=C(C)C(c2ccc(OC)cc2)NC(=S)N1 (centres unmarked), COc1ccc(CCNC(=O)C2CCN(C(=O)c3ccc(OC)c(OC)c3)CC2)cc1 is higher in “hERG current change (%, negative = inhibition) at 1uM” value: 1.33% for the first, 13.3% for the second.

Going from Cc1cc(Cl)c(OCCN2C(=O)NC(C)(C)C2=O)c(Br)c1 to COc1cc(Cl)c(C)cc1NC(=O)COc1cc(C)nc(C(C)C)n1, the “hERG current change (%, negative = inhibition) at 1uM” value rises from 5.92% to 6.55%.

Compared with CS(=O)(=O)N1CCC(C(=O)Nc2ccc(C(F)(F)F)cc2)CC1, CC(=O)Nc1ccc(C(=O)NNC(=O)C2C3CCCCC32)cc1 (centres unmarked) is lower in “hERG current change (%, negative = inhibition) at 1uM” value: 18.9% for the first, -2.07% for the second.

Compared with Cc1ccc2sc(N(CCCN(C)C)C(=O)c3ccc(S(=O)(=O)N4CCc5ccccc5C4)cc3)nc2c1C.Cl, Cc1cc(=O)oc2cc(OCC(=O)N3CCc4ccccc4C3)ccc12 is lower in “hERG current change (%, negative = inhibition) at 1uM” value: 13.4% for the first, -2.54% for the second.

Compared with Cc1c(NC(=O)C(C)OC(=O)c2cccc([N+](=O)[O-])c2)c(=O)n(-c2ccccc2)n1C (centres unmarked), CC(OC(=O)C1CC(=O)N(Cc2ccccc2)C1)C(=O)Nc1ccccc1[N+](=O)[O-] (centres unmarked) is lower in “hERG current change (%, negative = inhibition) at 1uM” value: 6.49% for the first, 3.73% for the second.

Compared with CCC(C)N(C(=O)COC(=O)c1ccc(=O)n(Cc2ccccc2)n1)C1CCS(=O)(=O)C1 (centres unmarked), Cc1cc(=O)oc2cc(OCc3ccc(C(=O)OCC(=O)NC4CCS(=O)(=O)C4)cc3)ccc12 (centres unmarked) is lower in “hERG current change (%, negative = inhibition) at 1uM” value: 5.04% for the first, 3.64% for the second.

Compared with CC(C)(O)C(=O)NNC(=S)Nc1cccc(C(F)(F)F)c1, Cc1cc(C)cc(C(=O)NC(=S)Nc2ccc3[nH]c(=O)[nH]c3c2)c1 is higher in “hERG current change (%, negative = inhibition) at 1uM” value: -6.99% for the first, 16.5% for the second.

Going from Nc1nc(CSc2ncccn2)nc(Nc2ccccc2)n1 to O=C(CSc1n[nH]c(-c2ccncc2)n1)Nc1ccccc1Cl, the “hERG current change (%, negative = inhibition) at 1uM” value rises from 5.26% to 12.2%.

Compared with COc1cccc(CNC(=O)Cc2nc3nc(C)cc(C)n3n2)c1, Cc1cc(C)nc(SCc2cn3c(C)cccc3n2)n1 is lower in “hERG current change (%, negative = inhibition) at 1uM” value: 14.5% for the first, 13.6% for the second.

Going from O=C1OCCC1Sc1ncnc2sccc12 (centres unmarked) to N#CC1=C(N)OC2=C(C(=O)CCC2)C1c1ccncc1 (centres unmarked), the “hERG current change (%, negative = inhibition) at 1uM” value rises from -4.95% to 10.4%.

Going from CC(Cl)C(=O)Nc1c2c(nn1-c1ccccc1)CSC2 (centres unmarked) to CC1(C2CC2)NC(=O)N(CC(=O)Nc2ccccc2-c2ccccc2)C1=O (centres unmarked), the “hERG current change (%, negative = inhibition) at 1uM” value rises from 7.33% to 15%.

First: COc1ccc(S(=O)(=O)Nc2cccnc2)c(Cl)c1Cl
Second: CC1Cc2ccccc2N1S(=O)(=O)c1cccc(C(=O)Nc2cccnc2)c1 (centres unmarked)
The “hERG current change (%, negative = inhibition) at 1uM” value of the first is higher: 10.7% for the first, -5.15% for the second.

First: O=C([C@H](O)c1ccccc1)N1CCC[C@H]1CO
Second: O=C(CCSc1nc2ccccc2o1)N1CCOCC1
The “hERG current change (%, negative = inhibition) at 1uM” value of the first is lower: 3.94% for the first, 8.39% for the second.

First: COC(=O)CSC1=NN1c1cc(C)nc(N)n1
Second: COc1cccc2c(SCC(=O)N/N=C/c3ccccc3)cc(C)nc12
The “hERG current change (%, negative = inhibition) at 1uM” value of the first is lower: 6.97% for the first, 15% for the second.

First: O=C1CNC(c2ccccc2Cl)c2cc(Br)ccc2N1 (centres unmarked)
Second: Cc1cc(NC(=O)Nc2ccccc2F)ccc1Br
The “hERG current change (%, negative = inhibition) at 1uM” value of the first is lower: 14.2% for the first, 14.8% for the second.

Compared with CCOc1cccc(/C=N/N2C(C)CCCC2C)c1O (centres unmarked), CCOC(=O)N1CCC(N2Cc3cccc(C(=O)N4CC(C)CC(C)C4)c3C2=O)CC1 (centres unmarked) is lower in “hERG current change (%, negative = inhibition) at 1uM” value: 2.07% for the first, 2.06% for the second.

First: O=C(N/N=C\c1cn[nH]c1-c1ccccc1)c1cccnc1
Second: CC(=O)Nc1ccc(C(=O)N/N=C/c2ccncc2)cc1
The “hERG current change (%, negative = inhibition) at 1uM” value of the first is lower: 6.4% for the first, 9% for the second.

First: CC(C)CN(C(=O)c1cc(Cl)nc2ccccc12)c1c(N)n(Cc2ccccc2)c(=O)[nH]c1=O
Second: CCCCn1c(N)c(N(CCC(C)C)C(=O)c2ccc3c(c2)OCCO3)c(=O)[nH]c1=O
The “hERG current change (%, negative = inhibition) at 1uM” value of the first is lower: 4.31% for the first, 15.5% for the second.

First: O=C(CSc1nccn1-c1ccc(F)cc1)NCc1ccc2c(c1)OCO2
Second: O=C(CSCc1ccccc1)N1CCN(c2ccc(F)cc2)CC1
The “hERG current change (%, negative = inhibition) at 1uM” value of the first is higher: 3.65% for the first, 2.03% for the second.

Compared with CCN(CC)CCOC(=O)C(Cc1ccco1)Cc1cccc2ccccc12.O=C(O)C(=O)O (centres unmarked), Cc1cccc(C)c1NC(=O)C(c1cccs1)N(Cc1ccco1)C(=O)Cn1nnc2ccccc21 (centres unmarked) is higher in “hERG current change (%, negative = inhibition) at 1uM” value: -62.8% for the first, 13.5% for the second.

First: CCCCOCCCNC(=O)N[C@@H](CC(C)C)C(=O)O
Second: COC(=O)c1ccc(C(=O)Nc2ccc(C(C)C)cc2N)cc1
The “hERG current change (%, negative = inhibition) at 1uM” value of the first is lower: -5.11% for the first, 19.4% for the second.

Going from COc1ccc(NC2CCCN(C(=O)CCn3cccn3)C2)cc1 (centres unmarked) to O=C(CSc1nnnn1Cc1ccccc1)N1CCN(c2ccccc2)CC1, the “hERG current change (%, negative = inhibition) at 1uM” value falls from 20.6% to 1.64%.

First: COc1ccc2nc(Nc3nc(CSc4nnc(C)s4)cc(=O)[nH]3)nc(C)c2c1
Second: COc1ccc(/C=N/Nc2nc(Nc3ccccc3)nc(N3CCCCC3)n2)c(OC)c1
The “hERG current change (%, negative = inhibition) at 1uM” value of the first is lower: 4.59% for the first, 13.1% for the second.

Going from Cc1ccccc1N1C(=O)C(Cl)=C(N2CCN(c3ccccc3)CC2)C1=O to O=C(O)c1ccccc1C(=O)c1ccc2c(c1)N(Cc1ccc(Cl)c(Cl)c1)C(=O)CO2, the “hERG current change (%, negative = inhibition) at 1uM” value falls from 12.9% to 7.58%.

First: BrCC(Br)(Br)Br
Second: CCCN=Cc1ccc(O)cc1
The “hERG current change (%, negative = inhibition) at 1uM” value of the first is higher: 19.6% for the first, 13.8% for the second.

Going from Cc1ccc(-n2ncc3c2CC(C)(C)CC3NC(=O)c2c(C)noc2C)cc1 (centres unmarked) to Cc1ccc(C)c(NC(=O)C(OC(=O)c2ccc(C)s2)c2ccccc2)c1 (centres unmarked), the “hERG current change (%, negative = inhibition) at 1uM” value rises from -13% to 11.5%.

First: CCc1nc(OCc2ccccc2)c2sc3nc4c(cc3c2n1)COC(C)(C)C4
Second: O=[N+]([O-])c1ccc(OCc2nnc(-c3ccccc3)o2)cc1
The “hERG current change (%, negative = inhibition) at 1uM” value of the first is lower: -4.86% for the first, 11.4% for the second.

Going from O=C(COc1ccc(-c2ccccc2)cc1)NNC(=O)Nc1ccccc1 to Oc1ccc(Br)cc1/C=N/Nc1ccccn1, the “hERG current change (%, negative = inhibition) at 1uM” value rises from 13.1% to 15%.

First: CCn1cc(CNC(=O)CSc2nc(-c3ccc(OC)c(OC)c3)cc(C(F)(F)F)n2)c(C)n1
Second: CCn1c(C(C)NC(=O)c2ccccc2C)n[nH]c1=S (centres unmarked)
The “hERG current change (%, negative = inhibition) at 1uM” value of the first is higher: 10.3% for the first, 10.1% for the second.

First: CC1CC(C)CN(C(=O)c2ccc(N3CC4CC(C3)c3cccc(=O)n3C4)c([N+](=O)[O-])c2)C1 (centres unmarked)
Second: Cc1cc(NC(=O)c2cccc(S(=O)(=O)N3CCCCCC3)c2)no1
The “hERG current change (%, negative = inhibition) at 1uM” value of the first is lower: 7.07% for the first, 13.7% for the second.

For CC1(C)OC(C)(C)/C(=C\c2ccccc2[N+](=O)[O-])C1=O, the “hERG current change (%, negative = inhibition) at 1uM” value was 3.04%.
